In the supplement of paper PMC10369915:
This is one part of the list. No stated cut-off is given here; in the data, active = 3.2 or more and inactive = the rest. Only a few entries rise above the background.

These binders were tested against SHP2 C-SH2 domain E139D (assay: enrichment score (SH2-bound / input frequency) (ratio); bacterial display of known human phosphotyrosine sites (pTyr-Var adds point mutants) read by sequencing; higher = stronger binding; tyrosines were phosphorylated by kinases first). Details: peptide library: pTyr-Var.
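Further: displayed peptides selected on beads carrying the immobilized SH2 domain, with library peptides lacking any tyrosine serving as negative controls.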

Enrichment score, inactive:
DDDPEYRKFLE [UPF3B_Y160] 0.488
ADLTEYLSTHF [UQCRC1_Y219_YF] 1.04
LHAAAYRNALA [UQCRC2_Y182] 0.733
SEELHYYVQNH [UQCRC2_Y207_F208Y] 0.762
ASELGYQFQAI [UROD_Y133_V134Q] 0.792
NSRYTYKLEVK [USH2A_Y3747] 0.907
DGTIVCTGLET [USH2A_Y4487_Y4487C] 0.918
TPGPNYCPGFN [USH2A_Y463_R464C_YF] 0.586
VFDMLYQVANL [USP24_Y1087_L1089V] 1.47
AEPDIYQEKLS [USP54_Y1233] 0.541
AEPNIYQEKLS [USP54_Y1233_D1231N] 0.999
KLKRSYPSPDI [USP8_Y717_S718P] 1.09
KDFTIHNPNLL [VANGL1_Y290_Y290H] 1.17
SHNELYFEAAE [VANGL1_Y344_E347A_YF] 0.652
HNELFYEAAEH [VANGL1_Y345_E347A_YF] 1.05
NDDDVYRSLEE [VAV2_Y142] 0.638
ISSLDYISKSK [VAV3_Y294_T298S] 0.704
IGMIIYFARKA [VCAM1_Y718] 0.708
LNEVGYDDIGG [VCP_Y203] 0.433

Each binder was assayed against SHP2 C-SH2 domain wild-type in the same assay as above. Details: peptide library: pTyr-Var.

Enrichment score, inactive:
DDDPEYRKFLE [UPF3B_Y160] 0.39
ADLTEYLSTHF [UQCRC1_Y219_YF] 0.982
LHAAAYRNALA [UQCRC2_Y182] 0.831
SEELHYYVQNH [UQCRC2_Y207_F208Y] 1.08
ASELGYQFQAI [UROD_Y133_V134Q] 0.826
NSRYTYKLEVK [USH2A_Y3747] 0.653
DGTIVCTGLET [USH2A_Y4487_Y4487C] 0.747
TPGPNYCPGFN [USH2A_Y463_R464C_YF] 0.717
VFDMLYQVANL [USP24_Y1087_L1089V] 1.29
AEPDIYQEKLS [USP54_Y1233] 0.616
AEPNIYQEKLS [USP54_Y1233_D1231N] 0.919
KLKRSYPSPDI [USP8_Y717_S718P] 0.616
KDFTIHNPNLL [VANGL1_Y290_Y290H] 0.937
SHNELYFEAAE [VANGL1_Y344_E347A_YF] 0.622
HNELFYEAAEH [VANGL1_Y345_E347A_YF] 0.89
NDDDVYRSLEE [VAV2_Y142] 0.549
ISSLDYISKSK [VAV3_Y294_T298S] 0.609
IGMIIYFARKA [VCAM1_Y718] 0.662
LNEVGYDDIGG [VCP_Y203] 0.558

The binders below were run against SHP2 N-SH2 domain L43F in the same assay as above. Details: peptide library: pTyr-Var.

Enrichment score, inactive:
DDDPEYRKFLE [UPF3B_Y160] 0.415
ADLTEYLSTHF [UQCRC1_Y219_YF] 0.95
LHAAAYRNALA [UQCRC2_Y182] 0.559
SEELHYYVQNH [UQCRC2_Y207_F208Y] 0.8
ASELGYQFQAI [UROD_Y133_V134Q] 0.766
NSRYTYKLEVK [USH2A_Y3747] 0.804
DGTIVCTGLET [USH2A_Y4487_Y4487C] 0.558
TPGPNYCPGFN [USH2A_Y463_R464C_YF] 0.691
VFDMLYQVANL [USP24_Y1087_L1089V] 1.62
AEPDIYQEKLS [USP54_Y1233] 0.598
AEPNIYQEKLS [USP54_Y1233_D1231N] 0.927
KLKRSYPSPDI [USP8_Y717_S718P] 0.517
KDFTIHNPNLL [VANGL1_Y290_Y290H] 1.13
SHNELYFEAAE [VANGL1_Y344_E347A_YF] 0.7
HNELFYEAAEH [VANGL1_Y345_E347A_YF] 1.01
NDDDVYRSLEE [VAV2_Y142] 0.523
ISSLDYISKSK [VAV3_Y294_T298S] 0.604
IGMIIYFARKA [VCAM1_Y718] 0.598
LNEVGYDDIGG [VCP_Y203] 0.543

These binders were tested against SHP2 N-SH2 domain T42A in the same assay as above. Details: peptide library: pTyr-Var.

Enrichment score, inactive:
DDDPEYRKFLE [UPF3B_Y160] 0.325
ADLTEYLSTHF [UQCRC1_Y219_YF] 0.924
LHAAAYRNALA [UQCRC2_Y182] 0.774
SEELHYYVQNH [UQCRC2_Y207_F208Y] 0.825
ASELGYQFQAI [UROD_Y133_V134Q] 0.775
NSRYTYKLEVK [USH2A_Y3747] 0.805
DGTIVCTGLET [USH2A_Y4487_Y4487C] 0.834
TPGPNYCPGFN [USH2A_Y463_R464C_YF] 0.552
VFDMLYQVANL [USP24_Y1087_L1089V] 1.64
AEPDIYQEKLS [USP54_Y1233] 0.503
AEPNIYQEKLS [USP54_Y1233_D1231N] 0.722
KLKRSYPSPDI [USP8_Y717_S718P] 0.458
KDFTIHNPNLL [VANGL1_Y290_Y290H] 0.779
SHNELYFEAAE [VANGL1_Y344_E347A_YF] 0.609
HNELFYEAAEH [VANGL1_Y345_E347A_YF] 0.847
NDDDVYRSLEE [VAV2_Y142] 0.539
ISSLDYISKSK [VAV3_Y294_T298S] 0.55
IGMIIYFARKA [VCAM1_Y718] 0.656
LNEVGYDDIGG [VCP_Y203] 0.792

These binders were tested against SHP2 N-SH2 domain T52S in the same assay as above. Details: peptide library: pTyr-Var.

Enrichment score, inactive:
DDDPEYRKFLE [UPF3B_Y160] 0.507
ADLTEYLSTHF [UQCRC1_Y219_YF] 0.866
LHAAAYRNALA [UQCRC2_Y182] 1.02
SEELHYYVQNH [UQCRC2_Y207_F208Y] 0.843
ASELGYQFQAI [UROD_Y133_V134Q] 0.881
NSRYTYKLEVK [USH2A_Y3747] 0.802
DGTIVCTGLET [USH2A_Y4487_Y4487C] 0.715
TPGPNYCPGFN [USH2A_Y463_R464C_YF] 0.839
VFDMLYQVANL [USP24_Y1087_L1089V] 1.41
AEPDIYQEKLS [USP54_Y1233] 0.559
AEPNIYQEKLS [USP54_Y1233_D1231N] 0.736
KLKRSYPSPDI [USP8_Y717_S718P] 0.591
KDFTIHNPNLL [VANGL1_Y290_Y290H] 0.871
SHNELYFEAAE [VANGL1_Y344_E347A_YF] 0.676
HNELFYEAAEH [VANGL1_Y345_E347A_YF] 1.39
NDDDVYRSLEE [VAV2_Y142] 0.454
ISSLDYISKSK [VAV3_Y294_T298S] 0.583
IGMIIYFARKA [VCAM1_Y718] 0.667
LNEVGYDDIGG [VCP_Y203] 0.702

These binders were tested against SHP2 N-SH2 domain wild-type in the same assay as above. Details: peptide library: pTyr-Var.

Enrichment score, inactive:
DDDPEYRKFLE [UPF3B_Y160] 0.373
ADLTEYLSTHF [UQCRC1_Y219_YF] 0.978
LHAAAYRNALA [UQCRC2_Y182] 0.586
SEELHYYVQNH [UQCRC2_Y207_F208Y] 1.11
ASELGYQFQAI [UROD_Y133_V134Q] 0.877
NSRYTYKLEVK [USH2A_Y3747] 0.678
DGTIVCTGLET [USH2A_Y4487_Y4487C] 0.812
TPGPNYCPGFN [USH2A_Y463_R464C_YF] 0.692
VFDMLYQVANL [USP24_Y1087_L1089V] 1.42
AEPDIYQEKLS [USP54_Y1233] 0.732
AEPNIYQEKLS [USP54_Y1233_D1231N] 0.602
KLKRSYPSPDI [USP8_Y717_S718P] 0.629
KDFTIHNPNLL [VANGL1_Y290_Y290H] 1.08
SHNELYFEAAE [VANGL1_Y344_E347A_YF] 0.786
HNELFYEAAEH [VANGL1_Y345_E347A_YF] 0.912
NDDDVYRSLEE [VAV2_Y142] 0.541
ISSLDYISKSK [VAV3_Y294_T298S] 0.821
IGMIIYFARKA [VCAM1_Y718] 0.671
LNEVGYDDIGG [VCP_Y203] 0.777
